Out of some 310,000 compounds screened, about 14,000 (4.5%) showed an effect of 50% or more. The effect is printed as a negative number. Some of the results follow.
Molecular target: human ether-à-go-go-related gene (hERG) potassium channel (human, UniProt Q12809)
Assay: primary screen, population patch clamp on CHO cells stably expressing hERG
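Note: peak tail current of the secondary pulse compared with the same well before compound.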

Sequence of human ether-à-go-go-related gene (hERG) potassium channel (Q12809 whole entry, looked up): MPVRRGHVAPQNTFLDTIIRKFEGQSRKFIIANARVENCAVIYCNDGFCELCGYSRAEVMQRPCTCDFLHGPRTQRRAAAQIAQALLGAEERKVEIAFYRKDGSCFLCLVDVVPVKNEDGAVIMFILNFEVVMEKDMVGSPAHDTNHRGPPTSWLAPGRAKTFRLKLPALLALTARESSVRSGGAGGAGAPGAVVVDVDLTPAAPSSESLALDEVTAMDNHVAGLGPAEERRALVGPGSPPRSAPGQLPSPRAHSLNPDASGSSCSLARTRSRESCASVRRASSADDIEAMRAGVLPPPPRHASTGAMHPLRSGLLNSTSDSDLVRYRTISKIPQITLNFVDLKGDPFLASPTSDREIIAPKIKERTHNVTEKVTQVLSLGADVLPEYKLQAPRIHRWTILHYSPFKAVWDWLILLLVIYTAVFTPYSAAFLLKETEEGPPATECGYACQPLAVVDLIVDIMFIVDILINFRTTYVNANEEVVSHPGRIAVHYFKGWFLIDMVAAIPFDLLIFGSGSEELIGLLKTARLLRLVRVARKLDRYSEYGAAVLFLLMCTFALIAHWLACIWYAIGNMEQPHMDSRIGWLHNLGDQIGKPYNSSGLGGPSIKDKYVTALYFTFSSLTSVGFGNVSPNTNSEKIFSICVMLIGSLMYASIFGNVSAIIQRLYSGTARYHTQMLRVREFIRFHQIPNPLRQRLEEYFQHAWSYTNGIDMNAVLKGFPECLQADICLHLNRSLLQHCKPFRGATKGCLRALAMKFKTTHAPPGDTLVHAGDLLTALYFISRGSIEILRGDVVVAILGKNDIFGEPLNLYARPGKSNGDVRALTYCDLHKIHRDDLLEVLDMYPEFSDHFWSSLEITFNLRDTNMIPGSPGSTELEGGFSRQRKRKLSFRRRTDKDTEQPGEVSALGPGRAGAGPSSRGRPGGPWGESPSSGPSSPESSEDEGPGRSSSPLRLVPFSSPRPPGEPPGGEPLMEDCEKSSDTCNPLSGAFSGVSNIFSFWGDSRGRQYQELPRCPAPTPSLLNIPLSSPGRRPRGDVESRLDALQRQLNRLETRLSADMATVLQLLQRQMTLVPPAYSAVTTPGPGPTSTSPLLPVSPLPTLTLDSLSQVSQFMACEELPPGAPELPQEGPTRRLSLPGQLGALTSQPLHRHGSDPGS

| Compound | hERG current change (%, negative = inhibition) at 10uM [%] |
| --- | --- |
| Cc1cc(/C=C2\SC(=S)NC2=O)c(C)[nH]1 | -1.33 |
| Cn1c(CN2CCCCC2)nc2cc(NC(=O)c3ccc(F)cc3)ccc21 | -54.2 |
| CCn1c(CN2CCN(CCO)CC2)nc2ccccc21 | 5.04 |
| O=C(CN(CC1CCCO1)C(=O)CCC(=O)Nc1nccs1)NCc1ccc2c(c1)OCO2 (stereo not shown) | 11.9 |
| CC(Oc1ccc2ccc(=O)oc2c1)C(=O)NC1CCN(Cc2ccccc2)CC1 (stereo not shown) | -75 |
| Cc1c(C(N)=O)sc2ncn(CC(=O)N(C)C3CCCCC3)c(=O)c12 | 5.49 |
| N#CCCn1nc(-c2ccccc2)cc1-n1c(C(F)(F)F)nc2ccccc21 | 2.55 |
| COC(=O)c1ccccc1NC(=O)Cn1cnc2c1c(=O)n(C)c(=O)n2C | -0.222 |
| CCOC(=O)c1c(S(=O)(=O)NCCCc2ccco2)c(C)n(C)c1C | -5.65 |
| O=C(NCC1COc2ccccc2O1)C1C2C=CC3(CN(Cc4cccs4)C(=O)C13)O2 (stereo not shown) | -31 |
| C=C1C[C@H]2[C@@H]3CCc4cc(OC)ccc4[C@H]3CC[C@]12C | 5.67 |
| COc1ccc(-c2csc(-n3cccn3)n2)cc1 | 21.4 |
| Cc1nc(SCC(=O)NC(=O)NCc2ccco2)nc(C)c1C | 6.48 |
| CCN(CC)C(=O)Cn1cc(C(=O)C(=O)NCCCn2ccnc2)c2ccccc21 | 27.8 |
| COc1ccc(Br)cc1/C=N/n1c(-c2ccccc2)n[nH]c1=S | 22.1 |
| CCOC(=O)C1=C(COC(=O)COc2cccc(C)c2C)NC(=O)NC1C (stereo not shown) | -1.45 |
| O=C(O)c1cccnc1SCc1cccc(Cl)c1 | 11.7 |
| CC(C)(C)OC(=O)N1CCC[C@H]1C(=O)Nc1ccc(C#N)cc1 | -10.3 |
| Cc1ccc(C(=O)NCCNS(=O)(=O)c2ccccc2[N+](=O)[O-])cc1 | 12.2 |
| Cc1c(C(=O)NCC2COc3ccccc3O2)oc2ccc(S(=O)(=O)N3CCOCC3)cc12 (stereo not shown) | -34.4 |
| CCN(CC(=O)NC1CCS(=O)(=O)C1)C(=O)c1cc(OC)c(OC)c(OC)c1 (stereo not shown) | -1.08 |
| CCN(C(C)=O)c1nc(CCl)cs1 | 9.14 |

| Compound | hERG current change (%, negative = inhibition) at 10uM [%] |
| --- | --- |
| CC(C)(C)NC(=O)COc1ccc(CNCc2ccccn2)cc1.Cl | 1.82 |
| Cc1ccc(Cc2nc3ccccc3[nH]2)cc1 | 7.94 |
| Cc1cc(C(C)(C)C)ccc1OCCn1ccnc1.O=C(O)C(=O)O | -2.35 |
| CCOC(=O)N1CCN(C(=O)CSc2nc(=O)n3cccc(C)c3n2)CC1 | -27.5 |
| Cc1cc(N2CCOCC2)nc2ccc(NC(=O)CCC(=O)N3CCN(c4cccc(C(F)(F)F)c4)CC3)cc12 | -6.4 |
| C/C(=C\c1ccccc1)CN1CCN(c2ccccc2)CC1 | -3.31 |
| N#CC1(NC(=O)CSc2nnc(-c3ccccc3F)o2)CCCCC1 | -13.1 |
| Cc1ccc(C2CC(=O)NC3=C2C(=O)CCC3)cc1Br (stereo not shown) | 1.35 |
| CN(CC(=O)Nc1ccccc1Cl)C(=O)c1ccc(COc2ccccc2)cc1 | -12.9 |
| COc1cc(NC(=O)c2cc(Cl)ccc2Cl)ccc1-c1cc2ccccc2oc1=O | -8.22 |
| Cc1ccccc1Oc1cc(NC(=O)CCCn2nc(C)c([N+](=O)[O-])c2C)cc([N+](=O)[O-])c1 | 7.73 |
| COc1ccccc1/C=N/OC(=O)c1ccc(F)cc1 | -8.71 |
| CCOc1ccc(CCNC(=O)C2CCCN(c3nn4c(=O)cc(C)nc4s3)C2)cc1OCC (stereo not shown) | 0.321 |
| Cc1ccc(NC(=O)CCS(=O)(=O)c2cc3c(cc2Cl)NC(=O)CO3)cc1 | -17.4 |
| COc1cccc(-c2noc(C3CCCN(C(=O)c4ccccc4OC)C3)n2)c1 (stereo not shown) | -2.8 |
| NC(=O)C1CCCc2c1n(Cc1ccccc1)c1ccccc21 (stereo not shown) | -14.7 |
| O=C(CNC(=O)c1sc2ccccc2c1Cl)NCc1ccccc1 | 10.9 |
| Cc1ccc(CNC(=O)c2cnc(-c3ccccn3)nc2C(F)(F)F)cc1 | 7.39 |
| Cc1ccc(C(=O)CSc2nc(C)cc(SCc3nnc(-c4ccccc4)o3)n2)cc1 | 10.1 |
| O=C(c1ccccc1)c1ccc(-c2ccc(O)cc2)cc1 | 10.1 |
| CC(C)N(Cc1nc(-c2ccccc2)no1)C(=O)c1ccc2c(c1)OCO2 | -17.4 |
| Cn1c2ccccc2c2c(C(=O)N3CCN(c4ccccc4)CC3)cn(C3CCCC3)c(=O)c21 | -14.5 |

| Compound | hERG current change (%, negative = inhibition) at 10uM [%] |
| --- | --- |
| CC(=O)NCCCc1nc2ccccc2n1Cc1cc(C)ccc1C | -14.5 |
| O=C(Nc1cc2c(ccc3ccccc32)oc1=O)C1CCCCC1 | -12 |
| CCN(CC)c1ccc(Nc2nc(N3CCOCC3)c3ccccc3n2)cc1 | -71.8 |
| Cc1nc(/N=C(\N)NC(=O)c2ccccc2)nc2ccccc12 | 0.75 |
| O=C1Nc2ccc(Br)cc2C1Cc1ccccc1F (stereo not shown) | -11.2 |
| O=c1c2cc3ccccc3n2cnn1Cc1ccccc1F | -19 |
| COc1ccc2ccc(OCC(=O)N3c4ccccc4NC(=O)CC3C)cc2c1 (stereo not shown) | -21.2 |
| COc1ccc(C(=O)Nc2sc(C)c(C)c2CN2CCOCC2)cc1 | 18 |
| Cc1cc(Cl)ccc1OCC(=O)NCC(=O)N/N=C/c1ccco1 | 11.9 |
| O=C1CCN(S(=O)(=O)c2ccc(Cl)cc2)CC1 | 4.82 |
| Cc1ccc(NC(=O)NCCN2CCCCC2)cc1C | -15.8 |
| CCOc1ccccc1NC(=O)/C=C/c1ccccc1[N+](=O)[O-] | 2.3 |
| CC(C)CCC1(CCc2ccncc2)C(=O)NC(=O)NC1=O | -12.6 |
| Cc1cccc(-n2c(O)c(/C=N/Nc3nc4c(c(=O)n(C)c(=O)n4C)n3C)c(=O)[nH]c2=S)c1 | -1.58 |
| O=C(Nc1ccn(Cc2c(F)c(F)c(F)c(F)c2F)n1)c1cccc(Cn2cc([N+](=O)[O-])cn2)c1 | 4.74 |
| CCCN(CCC)CCNS(=O)(=O)c1ccc2c(c1)CCN2C(=O)C1CCC1 | -20.6 |
| O=C(C1CSC2(c3ccc(F)cc3)CCC(=O)N12)N1CCCCCC1 (stereo not shown) | -20.8 |
| COc1cccc(/C=C/C(=O)OCC(=O)Nc2cccc(S(=O)(=O)N(C)C)c2)c1 | -3.82 |
| Cc1ccc(S(=O)(=O)N(C)C)cc1NC(=O)C1CCCCC1 | -1.12 |
| CCOc1ccc(-c2nc(C#N)c(N3CCOCC3)o2)cc1 | 1.6 |
| CCn1c(COc2cccc3cccnc23)nnc1SCC(=O)OC | 16.8 |
| CCNC(=S)NNC(=O)c1cccn(Cc2ccc(Cl)cc2)c1=O | -9.11 |

| Compound | hERG current change (%, negative = inhibition) at 10uM [%] |
| --- | --- |
| O=C(OCC(=O)N1CCN(Cc2ccccc2)CC1)c1ccc(Cl)cc1 | -42.8 |
| CC(=O)C1=C(O)C(=O)N(c2nccs2)C1c1ccc(Br)cc1 (stereo not shown) | 11.9 |
| O=C(Cn1c(=O)[nH]c2ccsc2c1=O)NC1CCCCCC1 | -11.9 |
| Cc1oc2c(c1C(=O)O)C(=O)c1ccccc1C2=O | -5.98 |
| Cc1ccc(OCc2cc(C(=O)NCC3COCCO3)no2)cc1C (stereo not shown) | -10 |
| Cl.O=C(NCC(c1cccs1)N1CCOCC1)c1ccccc1NS(=O)(=O)c1ccc(Cl)cc1 (stereo not shown) | 16.8 |
| Cn1c(SCc2nc3ccccc3c(=O)[nH]2)nc2ccccc21 | 0.933 |
| Cc1ccc(N2C(=O)N(CC(=O)Nc3ccccc3C(F)(F)F)C(=O)C2C)cc1 (stereo not shown) | -12.4 |
| CCCc1nnc(NC(=O)CCC(=O)NC2CC2)s1 | 8.48 |
| CC(=O)Nc1ccc(S(=O)(=O)N2CCN=C2SCc2ccccc2C)cc1 | 0.41 |
| CC(=O)c1cnc2cc(-c3cccc(Br)c3)nn2c1C | 4.11 |
| COc1cc(S(=O)(=O)NCc2cccnc2)c(OC)cc1Br | 33.9 |
| Cc1cc2n(n1)C(c1ccccc1)Nc1ccccc1-2 (stereo not shown) | 2.95 |
| O=C(c1cccc(Cl)c1)N1CCC(N2CCC(C(=O)N3CCOCC3)CC2)CC1 | -18.6 |
| Cc1nn(Cc2c(Cl)cccc2Cl)c(C)c1NC(=O)Cn1nc([N+](=O)[O-])c(Cl)c1C | -0.751 |
| NNC(=O)CNC(c1ccccc1)c1cc(Br)ccc1N (stereo not shown) | -17.6 |
| C=CCNC(=O)NC(=O)COC(=O)c1ccccc1Sc1ccc(C(F)(F)F)cc1[N+](=O)[O-] | 17.6 |
| CC1(C)CC(=O)c2c(O)cc(OCC(=O)NCCc3ccc(S(N)(=O)=O)cc3)cc2O1 | -29.9 |
| COc1cccc2cc(C(=O)NC(C)c3ccccc3)c(=O)oc12 (stereo not shown) | 16.3 |
| CCS(=O)(=O)c1ccc(-c2csc(-c3ccc(Cl)cc3)n2)c(Cl)c1Cl | 13.8 |
| O=c1ccc(-c2ccccc2)nn1Cc1ccccc1 | 0.0976 |
| O=C(NC(=S)Nc1ccc(S(=O)(=O)Nc2nccs2)cc1)c1ccccc1 | 15.2 |

From publication PMC4336329 (PLoS ONE, 2015)
